Over roughly 81,000 sequences, “one-hybrid fitness for binding parS DNA” has its median near -0.17; the highest 2% begin near 0.51. Some of the results follow.
B1: Caulobacter ParB omega fusion; a variant is named by its letters at X, in order, B8GW30 (parent)
chain: MESVVVGEPGMSEGRRGLGRGLSALLGEVDAAPAQAPGEQLGGSREAPIEILQRNPDQPRRTFREEDLEDLSNSIREKGVLQPILVRPSPDTAGEYQIVAGERAWRAAQRAGLKTVPIMVRELDDLAVLEIGIIENVQRADLNVLEEALSYKVLMEKFERTQENIAQTIGKSXSHVANXMRLLXLPDEVQSYLVSGELTAXHARAIAAAADPVALAKQIIEGGLSVRETEALARKAPNLSAGKSKGGRPPRVKDTDTQALESDLSSVLGLDVSIDHRGSTGTLTITYATLEQLDDLCNRLTRGI

Variants of: B1
Assay: one-hybrid fitness for binding parS DNA (scaled: cognate 1, non-cognate 0); higher = stronger binding
Conditions: with parS DNA site
Summary of the method: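 In E. coli USO, a HIS3 reporter with its site placed 19 bp from the promoter was used to select Caulobacter ParB variants randomised at four specificity codons. Growth lasted 48 hours at 37°C on histidine-free M9 containing 0.1 mM IPTG and 5 mM 3-AT. Fitness was taken as the log change in variant-to-wild-type read ratio from Illumina sequencing of pre- and post-selection plasmids, rescaled between the non-cognate and cognate sites.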

Row | Variant | one-hybrid fitness for binding parS DNA
1 | MVRG | ≤ 0.2
2 | VANH | ≤ 0.2
3 | KSFA | ≤ 0.2
4 | IPIK | ≤ 0.2
5 | HAKI | ≤ 0.2
6 | YGEL | ≤ 0.2
7 | MSAM | ≤ 0.2
8 | RRWP | ≤ 0.2
9 | HNFG | ≤ 0.2
10 | LFHF | ≤ 0.2
11 | ATKL | ≤ 0.2
12 | RFAT | 0.79
13 | FTIM | ≤ 0.2
14 | TPAR | ≤ 0.2
15 | EHRG | ≤ 0.2
16 | YIAC | ≤ 0.2
17 | SMSV | ≤ 0.2
18 | CSFR | ≤ 0.2
19 | SEQI | ≤ 0.2
20 | FLKG | ≤ 0.2
21 | SDMC | ≤ 0.2
22 | VLLF | ≤ 0.2
23 | VVKR | ≤ 0.2
24 | DQMK | ≤ 0.2

Row | Variant | one-hybrid fitness for binding parS DNA
25 | TGVV | ≤ 0.2
26 | CERL | ≤ 0.2
27 | MRLV | ≤ 0.2
28 | LDYS | ≤ 0.2
29 | GRDL | ≤ 0.2
30 | PCPW | ≤ 0.2
31 | SQKH | ≤ 0.2
32 | VAFW | ≤ 0.2
33 | LQVM | ≤ 0.2
34 | NSHL | ≤ 0.2
35 | RQMT | 0.881
36 | RRIG | 0.908
37 | RGGV | ≤ 0.2
38 | QCKS | ≤ 0.2
39 | HHPQ | ≤ 0.2
40 | HFIF | ≤ 0.2
41 | LPAV | ≤ 0.2
42 | KSGV | ≤ 0.2
43 | IQEG | ≤ 0.2
44 | VWQV | ≤ 0.2
45 | YRAL | ≤ 0.2
46 | QFTM | ≤ 0.2
47 | IYRR | ≤ 0.2
48 | RAHA | 0.613

Row | Variant | one-hybrid fitness for binding parS DNA
49 | DRLM | ≤ 0.2
50 | NSTF | ≤ 0.2
51 | HLAT | ≤ 0.2
52 | FTRS | ≤ 0.2
53 | MHNC | ≤ 0.2
54 | YISN | ≤ 0.2
55 | HVAL | ≤ 0.2
56 | GFGM | ≤ 0.2
57 | GICF | ≤ 0.2
58 | RITV | ≤ 0.2
59 | HRNQ | ≤ 0.2
60 | DPKR | ≤ 0.2
61 | DPPL | ≤ 0.2
62 | TMNS | ≤ 0.2
63 | GLDE | ≤ 0.2
64 | RTCI | ≤ 0.2
65 | SQRK | ≤ 0.2
66 | GKAV | ≤ 0.2
67 | MDMP | ≤ 0.2
68 | GWDG | ≤ 0.2
69 | RAMW | ≤ 0.2
70 | AYPS | ≤ 0.2
71 | DSAC | ≤ 0.2
72 | PHCC | ≤ 0.2

Row | Variant | one-hybrid fitness for binding parS DNA
73 | YRVL | ≤ 0.2
74 | RMCY | 0.509
75 | VELN | ≤ 0.2
76 | CPGV | ≤ 0.2
77 | IMRG | ≤ 0.2
78 | TENT | ≤ 0.2
79 | NDYG | ≤ 0.2
80 | RHNK | ≤ 0.2
81 | QAQK | ≤ 0.2
82 | FAFM | ≤ 0.2
83 | QAGY | ≤ 0.2
84 | PRGR | ≤ 0.2
85 | HKRR | ≤ 0.2
86 | DSDV | ≤ 0.2
87 | SYRT | ≤ 0.2
88 | HCGR | ≤ 0.2
89 | RVNF | 0.205
90 | PLMY | ≤ 0.2
91 | THST | ≤ 0.2
92 | ACKM | ≤ 0.2
93 | CTIW | ≤ 0.2
94 | LADR | ≤ 0.2
95 | LTIA | ≤ 0.2
96 | LKYL | ≤ 0.2

Row | Variant | one-hybrid fitness for binding parS DNA
97 | PLQC | ≤ 0.2
98 | SGTT | ≤ 0.2
99 | PNVI | ≤ 0.2
100 | YHAS | ≤ 0.2
101 | QEYV | ≤ 0.2
102 | AMNE | ≤ 0.2
103 | SYFT | ≤ 0.2
104 | GATD | ≤ 0.2
105 | SDRN | ≤ 0.2
106 | RVKW | 0.295
107 | NFMG | ≤ 0.2
108 | LKAF | ≤ 0.2
109 | VTTL | ≤ 0.2
110 | RQRW | 0.272
111 | YYPG | ≤ 0.2
112 | QYTQ | ≤ 0.2
113 | MGNL | ≤ 0.2
114 | ISPT | ≤ 0.2
115 | RDEL | ≤ 0.2
116 | PRNC | ≤ 0.2
117 | CPFF | ≤ 0.2
118 | FNVC | ≤ 0.2
119 | RPNG | ≤ 0.2
120 | VPRA | ≤ 0.2

Row | Variant | one-hybrid fitness for binding parS DNA
121 | GRFG | ≤ 0.2
122 | EPQC | ≤ 0.2
123 | YFVG | ≤ 0.2
124 | TDNL | ≤ 0.2
125 | QELM | ≤ 0.2
126 | SSEF | ≤ 0.2
127 | HWTA | ≤ 0.2
128 | QITM | ≤ 0.2
129 | RNFL | ≤ 0.2
130 | YTGA | ≤ 0.2
131 | PPHC | ≤ 0.2
132 | NCVC | ≤ 0.2
133 | RPYV | ≤ 0.2
134 | WPNL | ≤ 0.2
135 | EPAS | ≤ 0.2
136 | CMDY | ≤ 0.2
137 | ASSK | ≤ 0.2
138 | RYWV | ≤ 0.2
139 | IIKG | ≤ 0.2
140 | CCSR | ≤ 0.2
141 | HSVM | ≤ 0.2
142 | VMIG | ≤ 0.2
143 | PKYA | ≤ 0.2
144 | EADG | ≤ 0.2

Row | Variant | one-hybrid fitness for binding parS DNA
145 | SWKG | ≤ 0.2
146 | DVAH | ≤ 0.2
147 | PIQF | ≤ 0.2
148 | WRHS | ≤ 0.2
149 | LANV | ≤ 0.2
150 | NSQN | ≤ 0.2
151 | RSDC | 0.773
152 | VFKC | ≤ 0.2
153 | PSKM | ≤ 0.2
154 | HDMN | ≤ 0.2
155 | QRYR | ≤ 0.2
156 | CRSD | ≤ 0.2
157 | FELR | ≤ 0.2
158 | LSKT | ≤ 0.2
159 | FRPS | ≤ 0.2
160 | YYSM | ≤ 0.2
161 | FIDS | ≤ 0.2
162 | QEIG | ≤ 0.2
163 | QDLI | ≤ 0.2
164 | ATNC | ≤ 0.2
165 | SNLC | ≤ 0.2
166 | HSHH | ≤ 0.2
167 | YIYE | ≤ 0.2
168 | TRDR | ≤ 0.2

Row | Variant | one-hybrid fitness for binding parS DNA
169 | WPSM | ≤ 0.2
170 | DGSL | ≤ 0.2
171 | TRPF | ≤ 0.2
172 | PKKR | ≤ 0.2
173 | YNPG | ≤ 0.2
174 | TDPG | ≤ 0.2
175 | VACY | ≤ 0.2
176 | RGLG | 0.597
177 | DCAR | ≤ 0.2
178 | LCCG | ≤ 0.2
179 | QALR | ≤ 0.2
180 | ILDR | ≤ 0.2
181 | PGEM | ≤ 0.2
182 | FCAD | ≤ 0.2
183 | SLES | ≤ 0.2
184 | QKDK | ≤ 0.2
185 | SGRF | ≤ 0.2
186 | DIGV | ≤ 0.2
187 | GIMR | ≤ 0.2
188 | YFKG | ≤ 0.2
189 | SSAG | ≤ 0.2
190 | HARD | ≤ 0.2
191 | TILN | ≤ 0.2
192 | GSNC | ≤ 0.2

Row | Variant | one-hybrid fitness for binding parS DNA
193 | HDVS | ≤ 0.2
194 | SGTI | ≤ 0.2
195 | RDMS | ≤ 0.2
196 | RGNQ | ≤ 0.2
197 | YRAC | ≤ 0.2
198 | AEFI | ≤ 0.2
199 | PRGN | ≤ 0.2
200 | CHLK | ≤ 0.2
201 | RYDM | 0.29
202 | LAYT | ≤ 0.2
203 | QQPV | ≤ 0.2
204 | GMNI | ≤ 0.2
205 | LAQP | ≤ 0.2
206 | HIGG | ≤ 0.2
207 | DMET | ≤ 0.2
208 | QPQW | ≤ 0.2
209 | NTMM | ≤ 0.2
210 | PLPF | ≤ 0.2
211 | RTNN | 0.424
212 | CKDS | ≤ 0.2
213 | RRYQ | ≤ 0.2
214 | VRMW | ≤ 0.2
215 | GNRP | ≤ 0.2
216 | NMVV | ≤ 0.2

Row | Variant | one-hybrid fitness for binding parS DNA
217 | NRNV | ≤ 0.2
218 | SAFN | ≤ 0.2
219 | FTRM | ≤ 0.2
220 | PDDR | ≤ 0.2
221 | CHGR | ≤ 0.2
222 | AGLW | ≤ 0.2
223 | TQYG | ≤ 0.2
224 | GNTT | ≤ 0.2
225 | LRTD | ≤ 0.2
226 | ECYV | ≤ 0.2
227 | NGSI | ≤ 0.2
228 | RSWV | ≤ 0.2
229 | FTTA | ≤ 0.2
230 | YGIR | ≤ 0.2
231 | HTWG | ≤ 0.2
232 | YHRR | ≤ 0.2
233 | PVET | ≤ 0.2
234 | YPVV | ≤ 0.2
235 | DHDL | ≤ 0.2
236 | GKPL | ≤ 0.2
237 | YTMS | ≤ 0.2
238 | QAGV | ≤ 0.2
239 | KLTP | ≤ 0.2
240 | QHIC | ≤ 0.2

Row | Variant | one-hybrid fitness for binding parS DNA
241 | ILLE | ≤ 0.2
242 | IATG | ≤ 0.2
243 | RVTL | ≤ 0.2
244 | EIMS | ≤ 0.2
245 | EKAC | ≤ 0.2
246 | EVPI | ≤ 0.2
247 | QLLC | ≤ 0.2
248 | DIPH | ≤ 0.2
249 | FAWC | ≤ 0.2
250 | PQLS | ≤ 0.2
251 | GPPC | ≤ 0.2
252 | TENK | ≤ 0.2
253 | DHPR | ≤ 0.2
254 | ASQS | ≤ 0.2
255 | ACRW | ≤ 0.2
256 | TKLR | ≤ 0.2
257 | IRKF | ≤ 0.2
258 | HVWG | ≤ 0.2
259 | WSEC | ≤ 0.2
260 | LSPC | ≤ 0.2
261 | TRSP | ≤ 0.2
262 | HGRE | ≤ 0.2
263 | RHDT | 0.791
264 | NWYN | ≤ 0.2

Row | Variant | one-hybrid fitness for binding parS DNA
265 | DLCG | ≤ 0.2
266 | YLYE | ≤ 0.2
267 | PPEN | ≤ 0.2
268 | DKCR | ≤ 0.2
269 | RMHV | ≤ 0.2
270 | CMWG | ≤ 0.2
271 | GPHR | ≤ 0.2
272 | FRKT | ≤ 0.2
273 | RVTQ | ≤ 0.2
274 | VPDS | ≤ 0.2
275 | SEAQ | ≤ 0.2
276 | CHHI | ≤ 0.2
277 | GFLL | ≤ 0.2
278 | SRQV | ≤ 0.2
279 | IKGL | ≤ 0.2
280 | TWKY | ≤ 0.2
281 | YAAG | ≤ 0.2
282 | RTMR | ≤ 0.2
283 | RGVL | ≤ 0.2
284 | TTLY | ≤ 0.2
285 | TWWR | ≤ 0.2
286 | RGQR | ≤ 0.2
287 | HMNA | ≤ 0.2
288 | WGAC | ≤ 0.2

Row | Variant | one-hybrid fitness for binding parS DNA
289 | KPYG | ≤ 0.2
290 | NPAI | ≤ 0.2
291 | FQCG | ≤ 0.2
292 | MTVG | ≤ 0.2
293 | YVRY | ≤ 0.2
294 | ACQF | ≤ 0.2
295 | AGPA | ≤ 0.2
296 | AMSF | ≤ 0.2
297 | TCYT | ≤ 0.2
298 | TQWA | ≤ 0.2
299 | SCIR | ≤ 0.2
300 | QPKR | ≤ 0.2
301 | LSVS | ≤ 0.2
302 | VENK | ≤ 0.2
303 | LRLF | ≤ 0.2
304 | SYDR | ≤ 0.2
305 | EMSR | ≤ 0.2
306 | VYSG | ≤ 0.2

— a collection of fitness landscapes (doi:10.1016/j.celrep.2020.107928)
